About 12,000 (3.5%) of roughly 340,000 compounds were called active. The inconclusive results got no clear call from the source; some entries with a clear call stand among them for comparison. Calls follow the shape of the dose curve; as a rule, active = well fitted inhibition curve with a large enough effect; inconclusive = small, poorly fitted or top-dose-only effect, or another doubt; inactive = no such curve, though single readings can be large or run the other way. No potency is given beside an inconclusive call; the fits are too rough.
Experiment: qHTS Assay for Inhibitors of Hepatitis C Virus (HCV)
Conditions: Huh7.5.1 HCVcc-Cre (HCVcc is cell-culture hepatitis C virus) infection, luciferase reporter, 44 h; activity change, negative = inhibition: at 41.8 µM (top of the series)
Summary of the method: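 A cell-based infection assay in which seeded cells (1,000 per well) receive test compound after 4 h, are inoculated with HCVcc-Cre at approximately 0.5 moi, and are incubated 44 h before luminescence detection.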
% is scaled to controls: 0 for no effect and ±100 for the full control effect; potency is read from the fitted curve at half-maximal effect; tags tell the direction and shape of the fitted curve.

SMILES	Potency	activity change, negative = inhibition
CCOC(=O)c1ccc(NC(=O)CCc2nc(-c3ccc(Cl)cc3)no2)cc1	inconclusive [inhibitor, partial curve]	
COc1cc(C2Oc3cc(C4Oc5cc(O)cc(O)c5C(=O)C4O)ccc3OC2CO)ccc1O (centres undefined)	inconclusive [inhibitor, partial curve]	
COCCn1c(SCc2ccc(F)cc2)nc2ccccc2c1=O	inconclusive [inhibitor, single point]	
O=C(CN1C(=O)c2cccc3cccc1c23)NC1CCCC1	inconclusive [inhibitor, single point]	
CNc1snc(C)c1C(=O)OC(C)C(=O)c1ccc(F)cc1 (centres undefined)	active: 11.2 µM	
O=C(CCCc1nc2ccccc2s1)N1CCN(S(=O)(=O)c2cccs2)CC1	inconclusive [inhibitor, partial curve]	
O=[N+]([O-])c1ccc(C2CCCC/C2=N/OCc2ccccc2F)c([N+](=O)[O-])c1 (centres undefined)	inconclusive [inhibitor, single point]	
CCn1cc(Br)c(C(=O)Nc2ccccc2C(=O)OC)n1	inconclusive [inhibitor, single point]	
COc1ccc(Br)cc1C(=O)Nc1ccc(NC(=O)c2ccco2)cc1		inactive: -14%
CCOc1cc(C(=O)OCc2cc(=O)n3c(C)csc3n2)ccc1OC	inconclusive [inhibitor, partial curve]	
NC(=S)NN=C1c2cc(Cl)ccc2-c2c1cc(Cl)cc2[N+](=O)[O-]	inconclusive [inhibitor, single point]	
Cc1nc(N2CCN(S(=O)(=O)c3ccc(Br)cc3)CC2)c2c(C)c(C)sc2n1	inconclusive [inhibitor, single point]	
O=C(Nc1cccnc1)Nc1cc(Cl)cc(Cl)c1	inconclusive [inhibitor, single point]	
CC(C)(C)OC(=O)N/N=C/c1cc(N=Nc2ccccc2)ccc1O	active: 31.6 µM	
CC(C)S(=O)(=O)c1csc(NC(=O)Nc2ccc(Cl)cc2)c1Cl	inconclusive [inhibitor, single point]	
COC(=O)C1=NN(c2ccccc2)C2(S1)S/C(=C\c1ccccc1)C(=O)N2c1ccccc1 (centres undefined)	inconclusive [inhibitor, partial curve]	
COc1ccc(N=Nc2cnc(C)nc2-c2ccccc2)cc1		inactive: -10.1%
CN(c1ccccc1)S(=O)(=O)c1ccc(C(=O)N2CCc3ccccc3C2)cc1	inconclusive [inhibitor, partial curve]	
CCN1CCN(c2ccc(S(=O)(=O)N3CCOCC3)cc2NC(=O)c2ccc(Cl)cc2Cl)CC1	inconclusive [inhibitor, full curve, poor fit]	
COc1ccc2nc(SCC(=O)N3CCCCCC3)c(C#N)cc2c1	active: 6.31 µM	
Cc1cc(Nc2ccc(N(C)C)cc2)n2ncnc2n1		inactive: 2.9%
O=C(NCc1ccccc1)C(c1cccnc1)N(C(=O)c1ccccn1)c1ccccc1F (centres undefined)		inactive: 12.7%

SMILES	Potency	activity change, negative = inhibition
COC(=O)[C@]1(CC(C)C)N[C@H](c2ccc(-c3ccc(F)cc3)c(OC)c2)[C@@H]2C(=O)N(C)C(=O)[C@@H]21	inconclusive [inhibitor, partial curve]	
CC(C)CCn1c(-c2nonc2N)nc2ccccc21	active: 11.2 µM	
Cc1ccccc1OCCn1cc(C(=S)N2CCCC2)c2ccccc21	active: 11.2 µM	
CCC(=O)N(Cc1cc2c(C)cc(C)cc2[nH]c1=O)C1CCCCC1	inconclusive [inhibitor, single point]	
CS(=O)(=O)N(CC(=O)N1CCC(C(N)=O)CC1)Cc1ccc(Cl)c(Cl)c1		inactive: 11%
COc1ccccc1C(CNC(=O)c1cccc(S(=O)(=O)Nc2ccc(F)cc2)c1)N(C)C (centres undefined)	inconclusive [inhibitor, partial curve]	
CCOC(=O)c1c(N)sc(C(N)=O)c1C		inactive: 10.6%
COc1cccc(C(CC(=O)NCc2ccco2)NS(=O)(=O)c2ccc(C)cc2)c1OC (centres undefined)	inconclusive [inhibitor, partial curve]	
COc1ccc(C2C(Oc3ccccc3)C(=O)N2c2ccc(C)c(C)c2)cc1OC (centres undefined)	active: 11.2 µM	
COc1ccc2nc(C)cc(Nc3ccc(N4CCN(C)CC4)cc3)c2c1	active: 10 µM	
COc1cc(-c2nc3cnccn3c2Nc2ccc3c(c2)OCCO3)ccc1O	inconclusive [inhibitor, single point]	
O=C(COc1ccc(Br)cc1CO)Nc1ccc(S(=O)(=O)N2CCCC2)cc1	inconclusive [inhibitor, full curve, poor fit]	
CCCCNC(=O)CCn1c(=O)c2ccccc2n(Cc2ccccc2C)c1=O	inconclusive [inhibitor, single point]	
COc1ccccc1C1=NC(c2ccccc2)CN1c1ccccc1 (centres undefined)	inconclusive [inhibitor, single point]	
COc1cc(C(=O)OCC(=O)N(C)Cc2ccccc2)cc(OC)c1OC		inactive: -23.2%
COc1cc(NC(=O)c2ccc(Br)o2)ccc1NC(=O)c1ccccc1Cl	active: 10 µM	
COc1cc(C(C)=O)ccc1OC(C)C(=O)Nc1ccc(S(=O)(=O)N2CCCC2)cc1 (centres undefined)	inconclusive [inhibitor, full curve]	
COc1ccc(Cc2nc(C(=O)Nc3ccccc3)cs2)cc1	inconclusive [inhibitor, single point]	
Cc1ccc(CN2CCN(/N=C/c3ccc(O)c(O)c3)CC2)cc1		inactive: -23.4%
CCn1c(C(=O)N2CCCC(C(=O)NCCc3ccc(C)cc3)C2)cc2sccc21 (centres undefined)	inconclusive [inhibitor, partial curve]	
COc1ccc(NC(=O)CSc2nc3ccsc3c(=O)n2Cc2ccccn2)c(OC)c1	inconclusive [inhibitor, single point]	
CCOc1ccc(NC(=O)C(C)Oc2ccccc2C(=O)Nc2ccc(C)c(Cl)c2)cc1 (centres undefined)	active: 11.2 µM	

— PubChem BioAssay AID651820 (National Center for Advancing Translational Sciences (NCATS), 2012)
